Test results reported in PMC12136788.
Some of the results follow.

B1: chr19:8913615:8913616:-_ENSMUSG00000071658_ENSMUST00000096259|mus_hu|mus_mus_mus_hu_False|68_78 (ssRNA)
RNA: GGGAGUUCUACAGUCCGACGAUCAGGGUACCAAAACCUUCUGCCUGAAAUGGGUGCCCCACCCUGCCAGGACUUGGAGCUGAAAGUAUCUGAUGCAGAAGCAGUGACUAUACGAAAGGAGGCCCCUGGGGAGGGCCAGGCCAGCAACAGAGGAUUGAGCAUCA
B2: 57861572_57865899_835_CDS_ENSG00000047315_ENST00000314595|human|control|control (ssRNA)
RNA: GGGAGUUCUACAGUCCGACGAUCAAUAUCUCUGUCGGACACAAAACCUAAUGCUCUGAACACAAUAAUGAUGGGAACUUCUUGCUUGAUAUAUGGUAGAGUUGCCACAAUGCGCUGACCAAUAGCACUCUUCUUGGCACCCUGCAACAGAGGAUUGAGCAUCA
B3: chr4:115894766:115894767:+_ENSMUSG00000028698_ENSMUST00000030464|mus_mus|motif|central (ssRNA)
RNA: GGGAGUUCUACAGUCCGACGAUCUCCACACGGAAAUGUACUUGGGGGUUUCCAACGGCCAGUACAAGUCCAGCCAAACGGCGGGGAUGAGGACAAGGUCCUCCUCUUCUCUCCUCCUAAAGCACCCAACAAAAUACCCCGAACCAACAGAGGAUUGAGCAUCA
B4: chr14:78183846:78183847:+_ENSG00000119705_ENST00000557342|hu_hu|hu_hu_hu_mus_False|18_28 (ssRNA)
RNA: GGGAGUUCUACAGUCCGACGAUCUCUCAGAAAUCUUUCUUCAUCAGAUGUUUGAGCUCCGUGCAAAGCCUUUGCUCUUUGAGCUUGAACGUGGAUCUAUGGGAGGGCUAUAAUAUGAUUUUCCUGUAAUUUUUUUUUUAAAGACAACAGAGGAUUGAGCAUCA
B5: chr11:77336104:77336105:-_ENSG00000074201_ENST00000525064|hu_mus|hu_hu_hu_mus_False|8_68 (ssRNA)
RNA: GGGAGUUCUACAGUCCGACGAUCCUCACACAUUGCUGUGAACAUCGCCUCCAAUGCUGACUUAUCACUAGGCACAAAUCGAAAUUCAGAAAUGGGUUCAACAUCAUCAUUGUCUUCCUCAUCUUCAUCAUCAGCAAGUUCUUUCAACAGAGGAUUGAGCAUCA
B6: chr8:110352747:110352748:+_ENSG00000120533_ENST00000521662|hu_mus|hu_hu_hu_mus_True|1_1 (ssRNA)
RNA: GGGAGUUCUACAGUCCGACGAUCCAGGGCUCUGCCUUUUGGAGUGAUUUCAGCCACCAAGUCAUCAACAGUAACGUGUUCUAGUCCUUUUUCUUUAAUUACCUCUUUACAGUGUGCCUUUAGCUGAUCCUUCCAGCCACAUUCCAACAGAGGAUUGAGCAUCA
B7: chr7:90019630:90019631:+_ENSMUSG00000057706_ENSMUST00000082237|mus_mus|FALSE|FALSE (ssRNA)
RNA: GGGAGUUCUACAGUCCGACGAUCUAUAUCACUGAAUAGAAAAUAUGCUGGGUGAAGCAGAUCUAGAAGAUUUGUCUGAACCUAUAAAAUCUCCAUCCCAACAGAAUACUGCUCAAAACGUUAUACAUUUUAUGGUUUGUAAUCCAACAGAGGAUUGAGCAUCA
B8: chr14:66974463:66974464:+_ENSMUSG00000022044_ENSMUST00000074523|mus_hu|mus_mus_mus_hu_False|48_108 (ssRNA)
RNA: GGGAGUUCUACAGUCCGACGAUCUUGUAGGAUGAUUUAUUCAGGGGAUCGGCCAGGAAGCAGGAGCAGAACAAGGACACCAGCGGGAGUUCCUUCAUCUUCUCUUUGUAGGCAGCAAGGGUCAUGUUUCUGGGAUCUGGUGGCCAACAGAGGAUUGAGCAUCA
B9: chr3:10015032:10015033:+_ENSMUSG00000027533_ENSMUST00000029046|mus_mus|mus_mus_mus_hu_True|58_78 (ssRNA)
RNA: GGGAGUUCUACAGUCCGACGAUCGUUUUUACCAUCACAAGUGAUGAUACAAUCUGGCUUGGCCAUGGCGCCCAUUUUCCUAAGAGCUAUUCCCACUCCUAGCUCCUUCAUGUAUUCAUCAAAGCCUUUGCUGUCCACCAGGCGCAACAGAGGAUUGAGCAUCA
B10: chr4:76721835:76721836:+_ENSG00000138768_ENST00000264904|hu_mus|hu_hu_hu_mus_True|98_98 (ssRNA)
RNA: GGGAGUUCUACAGUCCGACGAUCGUUUGGCUGGGGUUCUGAGAUGCCUCUGGAAUAUAACUCAUGUUUGCUAAUAAAUCCUAGUUUCUCUAUGAAAUUCUCUUUGCCAAUCCUCUUCUCUAUUAGUUGCUUUAGUUUCUCUUUCAACAGAGGAUUGAGCAUCA
B11: chr5:179045309:179045310:-_ENSG00000169045_ENST00000393432|hu_mus|motif|central (ssRNA)
RNA: GGGAGUUCUACAGUCCGACGAUCAUAAUGAGUUCUAACUUCAGCUCGACUGCUCUUAAAUAUUUCAAUAUACCUGUGCCCGGUUCUUUCCUUGUGUUUCUUUAGAGCCUUUUCAGCUAUUUCCUGUGAAGCAAACUGCACGAACAACAGAGGAUUGAGCAUCA
B12: chr5:68661279:68661280:-_ENSG00000085231_ENST00000217893|hu_mus|FALSE|FALSE (ssRNA)
RNA: GGGAGUUCUACAGUCCGACGAUCACCUGAAUAUGGCUUGAUCAGUGGCAAAGGGGUUUGAUUUCUUUGUCGUGCAAUAUCUAAUAAGAAAUCUCUCGGGGGUGGAGAAGUGAAAGACUGGUCAGCACGGCACUGGAUUGCCAGCAACAGAGGAUUGAGCAUCA
B13: chr3:87781927:87781928:+_ENSMUSG00000004891_ENSMUST00000090973|mus_hu|FALSE|FALSE (ssRNA)
RNA: GGGAGUUCUACAGUCCGACGAUCUCCCUUUCCCAGGUUCUCUUCCUCUUCCAGAUUCCUUUGACUUUCCUUGUCUACCUCCUCUGGAGAUCUCAAAUUCUCCAGGUUCCAUGCUCCCAGAGAUCUCAAUGAUUCCUGAUUCUCCAACAGAGGAUUGAGCAUCA
B14: chr1:60041781:60041782:+_ENSMUSG00000041040_ENSMUST00000036540|mus_hu|mus_mus_mus_hu_False|88_98 (ssRNA)
RNA: GGGAGUUCUACAGUCCGACGAUCAAGUUUACAAUAGCUCAACUUUACAAAUUUAGUCAAAUUUUCUUUUAUUUUCCUUCACAAAAGAAAAUCUUUAUAACCCAGUCCUAGUCUUGGACAUAGUGAAAGCUAUAAAUUCUGACUCAACAGAGGAUUGAGCAUCA
B15: chr7:77240115:77240116:+_ENSG00000127947_ENST00000248594|hu_hu|FALSE|FALSE (ssRNA)
RNA: GGGAGUUCUACAGUCCGACGAUCUUCAUAUUGCUCCUUUGUUUGUACUGCAGAAUGCCUUUGUGUUCUCAUUUCUUGUAUUAAAUUAAAUACAUUAAAUUCCUCUGGUAUUUUCCCAGCUUUUAGUAAAUUCCACGUAUAAUCCAACAGAGGAUUGAGCAUCA
B16: chr2:47387770:47387771:-_ENSG00000143933_ENST00000272298|hu_mus|hu_hu_hu_mus_True|1_108 (ssRNA)
RNA: GGGAGUUCUACAGUCCGACGAUCAAGGUUUUAGGACAAUGACAGUAAGAUAAGGGAAGAAAACAUGGAGGAAUGAAGUCCUAAUUACUAUACAUGCAUAUUUUUUGACAGUAGGGGGGGGGAACCUUUUACAGAUAUUACAAACAACAGAGGAUUGAGCAUCA
B17: chr2:202488911:202488912:-_ENSG00000155755_ENST00000286196|hu_mus|hu_hu_hu_mus_False|1_108 (ssRNA)
RNA: GGGAGUUCUACAGUCCGACGAUCAUUUAACAUUUUUUCAUAAUCUCCAGUAGCAUUUCAGCAUUAUGUAACAAAAGCUCAAUUGUAAAUACAUGUAUCUUAUAAAAAUACACUUAAAAACACGAGUGGGGAGCGCACAAAUACCAACAGAGGAUUGAGCAUCA
B18: 13610230_13610976_1741_CDS_ENSG00000038219_ENST00000040738|human|control|control (ssRNA)
RNA: GGGAGUUCUACAGUCCGACGAUCUCUGGCGGCUUUAGGUUCCAAACUCUUUGUUGAUGAUUCUUCUAAGUCCACACUACUCCUGCCUUGACCCUUGGUUUUUGAAGACUUUGUCUUUUCUGCUUUCUGUUUUCGUUUUUCUUCCAACAGAGGAUUGAGCAUCA
B19: 73477012_73477521_1239_CDS_ENSG00000135624_ENST00000258091|human|control|control (ssRNA)
RNA: GGGAGUUCUACAGUCCGACGAUCCUCUGUCUCCUCCAUAAACUGCUCGGCGCCGCCACGGAGAAUGAAGGUGCAUGUCUUGGCCUUGGGGCAGCCAGUAAAAAAAUUGUACCUCUCGCCUCCAAUCUGGGUCUCUUCAAACACCAACAGAGGAUUGAGCAUCA
B20: chr10:10886374:10886375:+_ENSMUSG00000090112_ENSMUST00000044053|mus_hu|FALSE|FALSE (ssRNA)
RNA: GGGAGUUCUACAGUCCGACGAUCAUGUGGGAUAUCGACAUAAUUUAAUUCUGAACGCAGUACAUCAUAGGUAAUGAUAACUAUAUCCUGUUCUGCCAAAAAAUGAGGUUGUAAAAAGCCAUCUUUCUUCACUCCUUGAUAUACCAACAGAGGAUUGAGCAUCA
B21: chr17:65740002:65740003:+_ENSG00000130935_ENST00000581375|hu_hu|hu_hu_hu_mus_False|18_68 (ssRNA)
RNA: GGGAGUUCUACAGUCCGACGAUCAACAAAUCUUUCUUCCCUGGACGAACAGGAAGAUUCAUAUUAACUUUAUAAAAUAUCCAUCAAGUUAGGUGUGGUGGCCACACCUUUACUCCCCACUUCAAUUGAGGUGGAUCUCUGAGUCAACAGAGGAUUGAGCAUCA
B22: 15623581_15626486_3377_3pUTR_ENSMUSG00000021733_ENSMUST00000057015|mouse|control|control (ssRNA)
RNA: GGGAGUUCUACAGUCCGACGAUCUGUUAACAACUGAAGGGUCAAUACUAUAUUUUAGAGUUUUCACUGGAAUCUGCAGGAGACUCCCUCUUUCGAAUGGGAGGUGCACAGUGUCCUCAUCAUCCUGAAGCAUCCGUUCAGCUUCAACAGAGGAUUGAGCAUCA

target: T1, UNK ZnF1-3 (human, UniProt Q9C0B0 31-174); test: nsRBNS (natural sequence RNA bind-n-seq); RBNS binding buffer (assumed for nsRBNS): 25 mM Tris pH 7.5, 150 mM KCl, 3 mM MgCl2, 0.01% Triton X-100, 500 ug/ml BSA, 20 U/ml SUPERase-In, 4 C; UNK is unkempt and MSI1 is Musashi-1; names of the RNAs are library labels; protein concentration not given here; high values mean tight binding
T1 sequence: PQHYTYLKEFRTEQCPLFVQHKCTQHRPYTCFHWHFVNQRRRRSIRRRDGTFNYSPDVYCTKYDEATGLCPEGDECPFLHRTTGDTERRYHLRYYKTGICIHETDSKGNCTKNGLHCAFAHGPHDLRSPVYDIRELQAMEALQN

| Binder | binding signal [enrichment R] |
| --- | --- |
| B1 | 1.2 |
| B2 | 0.948 |
| B3 | 1.07 |
| B4 | 1.18 |
| B5 | 0.957 |
| B6 | 0.842 |
| B7 | 0.7 |
| B8 | 2.86 |
| B9 | 0.587 |
| B10 | 0.48 |
| B11 | 0.675 |
| B12 | 1.2 |
| B13 | 0.512 |
| B14 | 0.53 |
| B15 | 0.606 |
| B16 | 1.93 |
| B17 | 1.19 |
| B18 | 0.177 |
| B19 | 1.24 |
| B20 | 0.817 |
| B21 | 0.644 |
| B22 | 0.51 |
